# Publication PMC4336329 (PLoS ONE, 2015)
# The campaign covered roughly 310,000 compounds. About 2,200 (0.71%) showed an effect of 50% or more. The effect is printed as a negative number. This is one part of the list.
# Target: human ether-à-go-go-related gene (hERG) potassium channel (human, UniProt Q12809)
# Assay: primary screen, population patch clamp on CHO cells stably expressing hERG
# Description: Briefly, Chinese hamster ovary (CHO) cells stably expressing the hERG channel were dislodged from tissue culture flasks and dispensed into PPC plates. […] During the recording, background leak currents were estimated by a 100 ms step to -80 mV from an initial holding potential of -70 mV and subtracted from the subsequent current measurement. The campaign was conducted in two phases using slight differences in recording protocol. In the first phase, the initial voltage pulse used a 100 ms step to -30 mV from a holding potential of -70 mV, a 2 s conditioning step to +25 mV, and a 2 s test step to -30 mV. During the second phase of the screen, the potential during the conditioning step was raised to +45 mV. In both phases of the campaign, a secondary voltage pulse was applied using the same parameters as the second phase initial pulse. The initial and secondary pulses were applied in the absence of compound, and upon application of 1 μM and 10 μM test concentrations. Small molecule effects on hERG current density were quantified by […].
# Sequence of human ether-à-go-go-related gene (hERG) potassium channel (Q12809 whole entry, looked up): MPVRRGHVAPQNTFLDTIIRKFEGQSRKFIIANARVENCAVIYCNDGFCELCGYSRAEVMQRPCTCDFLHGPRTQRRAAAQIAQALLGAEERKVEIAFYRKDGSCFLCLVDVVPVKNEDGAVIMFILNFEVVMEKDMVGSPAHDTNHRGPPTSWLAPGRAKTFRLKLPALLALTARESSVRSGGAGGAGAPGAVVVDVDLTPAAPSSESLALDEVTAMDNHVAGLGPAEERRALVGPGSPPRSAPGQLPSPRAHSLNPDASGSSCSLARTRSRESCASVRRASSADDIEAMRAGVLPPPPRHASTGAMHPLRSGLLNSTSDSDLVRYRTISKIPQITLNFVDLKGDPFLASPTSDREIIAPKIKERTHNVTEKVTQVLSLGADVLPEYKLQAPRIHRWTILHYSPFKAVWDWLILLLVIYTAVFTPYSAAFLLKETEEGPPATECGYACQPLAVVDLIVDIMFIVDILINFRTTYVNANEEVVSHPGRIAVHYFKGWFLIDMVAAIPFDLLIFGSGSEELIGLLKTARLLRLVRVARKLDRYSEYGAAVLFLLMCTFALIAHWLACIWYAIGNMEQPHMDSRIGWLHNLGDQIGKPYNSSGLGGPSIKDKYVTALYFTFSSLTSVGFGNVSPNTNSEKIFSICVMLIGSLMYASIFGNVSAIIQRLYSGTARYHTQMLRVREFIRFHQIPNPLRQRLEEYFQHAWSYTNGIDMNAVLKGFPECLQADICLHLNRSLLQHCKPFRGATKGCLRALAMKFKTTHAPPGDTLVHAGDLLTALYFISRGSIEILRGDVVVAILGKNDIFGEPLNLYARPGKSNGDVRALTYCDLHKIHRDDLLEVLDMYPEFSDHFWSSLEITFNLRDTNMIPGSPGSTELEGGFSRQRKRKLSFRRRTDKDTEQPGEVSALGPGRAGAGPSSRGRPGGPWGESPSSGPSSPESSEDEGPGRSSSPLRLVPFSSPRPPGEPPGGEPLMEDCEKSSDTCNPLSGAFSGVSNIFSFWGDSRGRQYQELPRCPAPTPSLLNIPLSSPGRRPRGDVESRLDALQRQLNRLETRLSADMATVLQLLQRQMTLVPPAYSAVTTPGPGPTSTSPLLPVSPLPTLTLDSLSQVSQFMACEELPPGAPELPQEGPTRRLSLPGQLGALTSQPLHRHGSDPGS
row,Structure (SMILES),"hERG current change (%, negative = inhibition) at 1uM"
1,COc1ccc(OC)c(C2C(C(N)=O)=C(C)Nc3nc(-c4cccc(Cl)c4)nn32)c1 (stereo not shown),7.07%
2,CCCc1nccn1S(=O)(=O)c1cc(OC)ccc1OC,-2.82%
3,O=S(=O)([N-]c1nc2ccccc2nc1-[n+]1ccccc1)c1ccc(Cl)cc1,-2.84%
4,CCn1cc(C(=O)OCC(=O)Nc2c(C)n(C)n(-c3ccccc3)c2=O)c(=O)c2ccc(C)nc21,-2.92%
5,O=C(Nc1cccc([N+](=O)[O-])c1)c1ccc(CN2CCOCC2)cc1,10.2%
6,Cc1ccc(S(=O)(=O)Nc2nc(C)c(C(=O)Nc3ccccc3)s2)cc1,6.74%
7,COC(=O)C1CCCN1C(C(=O)NC1CCCCC1)c1ccc(Cl)cc1 (stereo not shown),7.3%
8,CCOc1ccc(NC(=O)CSc2nnc(Cn3c(=O)sc4ccccc43)n2C)cc1,2.72%
9,CCOC(=O)CCNC(=O)N1CCCC(N(C)CCc2ccccc2)C1 (stereo not shown),-17.5%
10,Cc1c([N+](=O)[O-])cc(S(=O)(=O)Nc2ccc(-c3ccc(N4CCCC4)nn3)cc2)cc1[N+](=O)[O-],10%
11,O=C(CN(C(=O)CCC(=O)Nc1ccccn1)c1cccc(F)c1)NCc1ccc2c(c1)OCO2,2.28%
12,CCCS(=O)(=O)N1CCC(C(=O)NCc2ccc(F)cc2)CC1,20.2%
13,O=C(CSC1=NS(=O)(=O)c2cc(Cl)ccc2N1)NCCc1ccccc1,18.4%
14,Nc1nnc(C(F)(F)F)s1,4.92%
15,Cc1[nH]n(-c2ccccc2)c(=O)c1/C=N/Nc1nncc(-c2ccccc2)n1,10.2%
16,COc1ccc(C(=O)NCc2ccccn2)cc1,13.6%
17,O=C(Nc1cccc(S(=O)(=O)NC2=NCCC2)c1)c1cc(-c2ccccn2)nc2ccccc12,5.41%
18,CN(CC(=O)N1CCCCCC1)S(=O)(=O)c1ccccc1,14.4%
19,COc1ccc2[nH]c3c(N4CCC(O)(c5cccc(C(F)(F)F)c5)CC4)ncnc3c2c1,12.3%
20,S=C(NCc1ccccc1)NC1CCCc2ccccc21 (stereo not shown),11.6%
21,CC(C)CC(=O)Nc1ccccc1N1CCCC1,14.6%
22,O=C(Nc1ccccc1F)c1ccncc1,18.3%

row,Structure (SMILES),"hERG current change (%, negative = inhibition) at 1uM"
1,CCC(C)(C(=O)NC1CCCC1)N(Cc1ccco1)C(=O)Cc1cccs1 (stereo not shown),15.2%
2,COc1ccc(N2CCCn3c2nc2c3c(=O)n(Cc3ccccc3)c(=O)n2C)c(OC)c1,-5.18%
3,Cc1ccccc1CN1CCC(Oc2ccc(C(=O)NCc3ccccn3)cc2)CC1,13%
4,COc1cc(OC)c2ccc(=O)oc2c1C(CC(=O)N1CCN(c2ccccc2)CC1)c1ccc2c(c1)OCO2 (stereo not shown),10.4%
5,Cn1cnc(S(=O)(=O)Nc2ccc(OC(F)F)cc2)c1,17.7%
6,Cc1ccc(S(=O)(=O)/N=C(\Sc2ccccc2)c2ccccc2)cc1,10.2%
7,Cc1ccnc(NC(=O)C2CCN(S(=O)(=O)c3cccc4nsnc34)CC2)c1,11%
8,O=C(CSc1ncn[nH]1)c1ccc2c(c1)OCO2,-8.57%
9,CCN1CCN(c2ccc(S(=O)(=O)N3CCOCC3)cc2NC(=O)CCSC)CC1,14%
10,CCCc1cc(=O)oc2c3c(cc(OCC(=O)NCC4CCC(C(=O)O)CC4)c12)OC(C)(C)CC3 (stereo not shown),6.22%
11,Cc1ccc(N/C=C/C(=O)c2cccs2)cc1,14.6%
12,O=[N+]([O-])c1cccc(/C=N/N2CCN(c3ccccn3)CC2)c1,13.4%
13,Cc1ccccc1C(=O)Nc1nnc(S(=O)(=O)N2CCCCCC2)s1,5.63%
14,O=C(O)CSc1cc(NS(=O)(=O)c2ccc(Cl)cc2)c2ccccc2c1O,11.7%
15,Cc1ccccc1Cc1c(C)nc2nc(SCC(=O)NCCCN3CCCCC3)nn2c1C,10%
16,Cc1ccc(OCCCC(=O)Nc2nccs2)cc1,15.9%
17,Cc1cccc(C)c1OCc1cc(C(=O)N(Cc2c(C)nn(C)c2C)C2CC2)no1,6.76%
18,O=C1C=C(N2CCCCC2)c2ccccc2C1=O,10.1%
19,COc1ccc(NC(=O)CS(=O)c2ccc(F)cc2)cc1 (stereo not shown),13.9%
20,COc1cc(OC)cc(C(=O)NNC(=S)Nc2ccccc2OC)c1,11%
21,CC(C)(C)N1C(=O)[C@H]2[C@@H](c3ccc(Br)cc3)N3C(=O)N(c4cccc(Br)c4)C(=O)[C@@]3(Cc3ccccc3)[C@H]2C1=O,8.1%
